Data set [1] has as its system neutrophils. As to the kind of experiment: Peripheral blood analysis, 28 days daily oral dosing. Particulars: 100 mg/kg, after 28 days of once daily oral dosing.
Data set [2] deals with myeloid progenitors (Mac1+ Gr1+). Briefly: EdU incorporation in bone marrow. The note with it: both the 50 and 100 mg/kg cohorts, 7 days, 12 hours post-treatment.

In the case of `CC(C)N1CCN(c2ccc(Nc3ncc4cc5n(c4n3)C3(CCCCC3)CNC5=O)nc2)CC1.Cl.Cl` [G1T38, 2′-((5-(4-isopropylpiperazin-1-yl)pyridin-2-yl)amino)-7′, 8′dihydro-6′Hspiro[cyclohexane1,9′ pyrazino[1′,2′:1,5]pyrrolo[2,3-d]pyrimidin]-6′-one di-hydrochloride], in data set [1], the decrease in neutrophils was determined as 48%. Take `CC(=O)c1c(C)c2cnc(Nc3ccc(N4CCNCC4)cn3)nc2n(C2CCCC2)c1=O` [palbociclib, reference compound]: the “reduction in myeloid progenitor proliferation” value in data set [2] is over 50%.

Source of the values: PMC5522071, “Preclinical development of G1T38: A novel, potent and selective inhibitor of cyclin dependent kinases 4/6 for use as an oral antineoplastic in patients with CDK4/6 sensitive tumors” (Oncotarget, 2017).
